Some of the results follow. At the low end of the ranking the order means little.

This assay has as its target T1, GST-Rok-C97-191 (UniProt O34857).
T1 sequence: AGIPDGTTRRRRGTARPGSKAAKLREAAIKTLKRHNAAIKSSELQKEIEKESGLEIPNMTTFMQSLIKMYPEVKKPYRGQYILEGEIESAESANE
Briefly: protein binding microarray.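 Further: rank score from −0.5 (least bound) to 0.5 (best bound).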 The conditions noted are these: Rok is a gene silencer of Bacillus subtilis; high values mean tight binding; most listed sequences are background and not binding sites; double strand, one strand shown.
Turning to ACATTGCC, the binding signal is 0.0138 E-score.

AGCAACGA came in with a binding signal of -0.024 E-score.

Consider AGCACTAT, for which the binding signal is 0.0129 E-score.

For the sequence ATCTGATA, the binding signal turned out to be 0.168 E-score.

Sequence TACGGCAA showed a binding signal of 0.15 E-score.

Sequence AGCTACCG displayed a binding signal of 0.228 E-score.

Consider CAGAACAA, for which the binding signal was -0.108 E-score.

For the sequence CGTTTGCC, the binding signal is -0.177 E-score.

Sequence AAGCCCCG returned a binding signal of -0.183 E-score.

CCATCTGC: the binding signal is -0.206 E-score.

With TTCCAAAA, the binding signal is -0.0673 E-score.

Regarding ATTGCCGA, the binding signal worked out at 0.107 E-score.

GTGTAAAA had a binding signal of 0.223 E-score.

Regarding ACTATTTC, the binding signal was 0.293 E-score.

The sequence ACTCCAGC yielded a binding signal of 0.114 E-score.

For the sequence ACTACTTA, the binding signal was found to be 0.415 E-score.

Sequence GACGATTA showed a binding signal of -0.159 E-score.

Regarding AGGATGGC, the binding signal was -0.165 E-score.

Consider ATCTTAGA, for which the binding signal is -0.0736 E-score.

The sequence ACACTTCG displayed a binding signal of -0.0858 E-score.

Take CTGCGGAC: the binding signal was -0.132 E-score.

As for ATATAGTA, the binding signal was determined as 0.438 E-score.

CTCCCGTA returned a binding signal of -0.0792 E-score.

The sequence GGGTGACC yielded a binding signal of -0.181 E-score.

In the case of AAGCGACT, the binding signal is 0.00287 E-score.

In the case of ATTGACTA, the binding signal was determined as 0.171 E-score.

GCGAAGCC returned a binding signal of -0.234 E-score.

ATGGCCTG: the binding signal is -0.317 E-score.

For CAGAGGCG, the binding signal is -0.224 E-score.

On to ATAGGGTA, for which the binding signal worked out at 0.09 E-score.

With AACCTCTA, the binding signal worked out at 0.0362 E-score.

CGAAGTAC came in with a binding signal of 0.115 E-score.

In the case of AGCGCCAG, the binding signal was -0.291 E-score.

Consider CCATGGAA, for which the binding signal was -0.0981 E-score.

ATCTAAAA registered a binding signal of 0.189 E-score.

For CAGAGAAA, the binding signal is -0.0819 E-score.

Regarding CTGGATTC, the binding signal was -0.121 E-score.

In turn, CCTTGTAC showed a binding signal of 0.0856 E-score.

In turn, TCCTTTAA gave a binding signal of -0.194 E-score.

ACCGGGAT came in with a binding signal of -0.116 E-score.

The sequence ACGGAAAG displayed a binding signal of -0.117 E-score.

For AATTTTGG, the binding signal amounted to 0.126 E-score.

As for CCGCTGAG, the binding signal is -0.265 E-score.

For the sequence ATAGCTTG, the binding signal turned out to be 0.251 E-score.

The sequence ACGACTAT displayed a binding signal of 0.155 E-score.

In turn, TGTACCAA came in with a binding signal of 0.176 E-score.

The sequence CCACTTCC returned a binding signal of -0.248 E-score.

Sequence TACTCTAA registered a binding signal of 0.0401 E-score.

For the sequence AAATGCTT, the binding signal is -0.000293 E-score.

Regarding GAATTGCC, the binding signal was 0.0281 E-score.

Sequence GGGGCAAA registered a binding signal of -0.128 E-score.

Sequence GCTTCGCA showed a binding signal of -0.148 E-score.

In turn, GATCTACC returned a binding signal of 0.35 E-score.

In the case of ACCCAAGA, the binding signal is -0.0224 E-score.

GAAACGTC showed a binding signal of -0.392 E-score.

The sequence TCAAGGCA showed a binding signal of -0.0684 E-score.

Take CCAGCGCG: the binding signal was -0.147 E-score.

As to GCGTTCCC, the binding signal is -0.0567 E-score.

The sequence AAAGGAAG yielded a binding signal of -0.134 E-score.

GATTGCAA showed a binding signal of 0.139 E-score.

Take CGTTCCCA: the binding signal is -0.189 E-score.

AATGTATG displayed a binding signal of 0.309 E-score.

In the case of AGCAATGA, the binding signal was -0.189 E-score.

Take CGCCTCCG: the binding signal was -0.335 E-score.

Take AAACCTCC: the binding signal is -0.149 E-score.

The sequence ACTCACCG yielded a binding signal of -0.00926 E-score.

Sequence GCAGCGGC yielded a binding signal of -0.386 E-score.

Turning to CGTAAGAC, the binding signal was -0.0605 E-score.

The sequence GAAGTCAA displayed a binding signal of -0.0412 E-score.

Sequence GAATCGAC yielded a binding signal of -0.0587 E-score.

Turning to GTGTGAAA, the binding signal is -0.11 E-score.

Take AGTACCGC: the binding signal was -0.121 E-score.

In turn, AATGTTCT had a binding signal of 0.115 E-score.

On to AGTTGAAT, for which the binding signal was 0.114 E-score.

The sequence AAATTGTT gave a binding signal of 0.264 E-score.

Sequence GTTAATCA yielded a binding signal of -0.00641 E-score.

As to GGCGTATA, the binding signal came out at 0.125 E-score.

As for GCCTTCGC, the binding signal is -0.0744 E-score.

Sequence CTTGAAAC showed a binding signal of -0.146 E-score.

Take CTGGTAGA: the binding signal came out at 0.324 E-score.

CCCTGCTA registered a binding signal of -0.179 E-score.

For AAGAAAGA, the binding signal turned out to be 0.0949 E-score.

As to CCGTAACA, the binding signal is 0.155 E-score.

In turn, ACCCGTAA had a binding signal of 0.00435 E-score.

With TGGCTTAA, the binding signal was -0.0768 E-score.

As for CGAGCTCA, the binding signal was -0.166 E-score.

For the sequence CTGGGCTC, the binding signal was -0.298 E-score.

As for ACCAGATC, the binding signal was -0.156 E-score.

ACTATCGA yielded a binding signal of 0.348 E-score.

As for ATATGAAG, the binding signal was determined as 0.167 E-score.

In turn, CTATGCAA returned a binding signal of 0.132 E-score.

On to GCCGACCC, for which the binding signal is -0.315 E-score.

As for GAAGTGAC, the binding signal is 0.0733 E-score.

Take GGTCGGTA: the binding signal is -0.244 E-score.

Regarding TAAGAGGA, the binding signal was -0.145 E-score.

Take CGACACAG: the binding signal was -0.0667 E-score.

Consider CCAGTATA, for which the binding signal was found to be 0.143 E-score.

GCCCAGGA showed a binding signal of -0.208 E-score.

Sequence ACCTAAAA returned a binding signal of 0.295 E-score.

On to GGGAGTCA, for which the binding signal was -0.148 E-score.

Consider AGCACTGA, for which the binding signal was -0.162 E-score.

For the sequence CACTACAG, the binding signal was -0.165 E-score.

The sequence ATTGGTAA gave a binding signal of 0.258 E-score.

The sequence AAGTTCAA showed a binding signal of 0.137 E-score.

For the sequence CTGAGCAC, the binding signal was -0.128 E-score.

Take AAGGTGTA: the binding signal was found to be 0.179 E-score.

For TCACAGAA, the binding signal was 0.0216 E-score.

As for AGATTATA, the binding signal was determined as 0.253 E-score.

Regarding AGTACTCC, the binding signal is 0.00355 E-score.

In turn, GTTTGGGA returned a binding signal of 0.0143 E-score.

As for CCGCGAAA, the binding signal amounted to 0.0383 E-score.

As to CAGCCAAC, the binding signal was -0.0467 E-score.

For AGATCGGA, the binding signal turned out to be 0.00178 E-score.

As to CATGAATC, the binding signal was 0.13 E-score.

Consider ACGTATTA, for which the binding signal amounted to 0.185 E-score.

Consider CCACATAC, for which the binding signal was 0.16 E-score.

In turn, CGTTCTCC registered a binding signal of -0.321 E-score.

For the sequence ACTGATCT, the binding signal is -0.0994 E-score.

Take AGGAGCAG: the binding signal was -0.274 E-score.

As for ATTAGCGG, the binding signal was 0.263 E-score.

Turning to ACTAGACC, the binding signal is 0.0212 E-score.

With TATGCAGA, the binding signal was found to be 0.151 E-score.

Sequence AGTTAGAC showed a binding signal of 0.109 E-score.

In turn, ACCAGGCC gave a binding signal of -0.215 E-score.

AAACAGAG yielded a binding signal of 0.00841 E-score.

Sequence AGTTGGCC gave a binding signal of 0.0352 E-score.

ACCACAGC: the binding signal was -0.0796 E-score.

ACCGCGCA had a binding signal of -0.212 E-score.

Consider ACCCGACG, for which the binding signal was -0.264 E-score.

The sequence ACCCCCCG registered a binding signal of -0.344 E-score.

The sequence ATTTGTCA gave a binding signal of 0.191 E-score.

TAATACTA returned a binding signal of 0.401 E-score.

For the sequence ACACAAAA, the binding signal was found to be 0.109 E-score.

GGGGAATA: the binding signal is 0.0422 E-score.

GCTGTCTA yielded a binding signal of -0.142 E-score.

On to CTTCGGTC, for which the binding signal is -0.106 E-score.

Regarding ACAAACAA, the binding signal was -0.0928 E-score.

AGGGACAG: the binding signal was determined as 0.00525 E-score.

For the sequence ACTAGGTG, the binding signal amounted to 0.242 E-score.

Sequence ATCTTAAT registered a binding signal of 0.148 E-score.

Take AGACTAAA: the binding signal stood at 0.0407 E-score.

Turning to CTGTACAG, the binding signal is -0.0808 E-score.

With ACGAACCA, the binding signal was -0.0855 E-score.

ACTCACTC: the binding signal was -0.0235 E-score.

The sequence CGTCCCTC came in with a binding signal of -0.405 E-score.

For AATGTGAT, the binding signal is 0.149 E-score.

With GACTCTGA, the binding signal is -0.12 E-score.

Turning to AAAAGAAT, the binding signal was found to be 0.157 E-score.

Turning to ACGGCCAA, the binding signal was -0.00204 E-score.

Take CCAAGGAC: the binding signal was -0.176 E-score.

As for CAAGGGAC, the binding signal was -0.0666 E-score.

On to CGTGTAAG, for which the binding signal amounted to 0.00614 E-score.

As to GCCATTCA, the binding signal amounted to 0.0838 E-score.

On to AATGATGT, for which the binding signal amounted to 0.146 E-score.

Regarding ATGCGTCA, the binding signal is -0.1 E-score.

Consider CTGGGCGA, for which the binding signal was -0.263 E-score.

Turning to CGCACTAA, the binding signal is 0.255 E-score.

CCGTTAGG yielded a binding signal of -0.335 E-score.

With AACTCGAC, the binding signal is -0.0777 E-score.

Take AGTGAGAT: the binding signal was -0.014 E-score.

Turning to AAGTGCGG, the binding signal came out at 0.009 E-score.

On to CCCGCCCC, for which the binding signal is -0.318 E-score.

Regarding ATACCTTA, the binding signal was 0.0226 E-score.

AGGACCCA came in with a binding signal of -0.179 E-score.

CGAGTCCC gave a binding signal of -0.169 E-score.

In the case of ACTCGCGC, the binding signal was determined as 0.0683 E-score.

In turn, ACGACCGG had a binding signal of 0.0208 E-score.

For AAAGGGTG, the binding signal was -0.259 E-score.

As to AGCTTTTA, the binding signal stood at 0.21 E-score.

For the sequence TGGGTTAA, the binding signal was determined as 0.109 E-score.

GCGCACCC had a binding signal of -0.185 E-score.

In turn, CGCTATTC showed a binding signal of -0.0121 E-score.

Values taken from paper PMC6212790.
